Test results from paper PMC4336329 (PLoS ONE, 2015).
Out of some 310,000 compounds screened, about 2,200 (0.71%) showed an effect of 50% or more. The effect is printed as a negative number. This is one part of the list.

Each molecule was assayed against human ether-à-go-go-related gene (hERG) potassium channel (human, UniProt Q12809) (assay: primary screen, population patch clamp on CHO cells stably expressing hERG).
Chain of human ether-à-go-go-related gene (hERG) potassium channel (Q12809 whole entry, looked up): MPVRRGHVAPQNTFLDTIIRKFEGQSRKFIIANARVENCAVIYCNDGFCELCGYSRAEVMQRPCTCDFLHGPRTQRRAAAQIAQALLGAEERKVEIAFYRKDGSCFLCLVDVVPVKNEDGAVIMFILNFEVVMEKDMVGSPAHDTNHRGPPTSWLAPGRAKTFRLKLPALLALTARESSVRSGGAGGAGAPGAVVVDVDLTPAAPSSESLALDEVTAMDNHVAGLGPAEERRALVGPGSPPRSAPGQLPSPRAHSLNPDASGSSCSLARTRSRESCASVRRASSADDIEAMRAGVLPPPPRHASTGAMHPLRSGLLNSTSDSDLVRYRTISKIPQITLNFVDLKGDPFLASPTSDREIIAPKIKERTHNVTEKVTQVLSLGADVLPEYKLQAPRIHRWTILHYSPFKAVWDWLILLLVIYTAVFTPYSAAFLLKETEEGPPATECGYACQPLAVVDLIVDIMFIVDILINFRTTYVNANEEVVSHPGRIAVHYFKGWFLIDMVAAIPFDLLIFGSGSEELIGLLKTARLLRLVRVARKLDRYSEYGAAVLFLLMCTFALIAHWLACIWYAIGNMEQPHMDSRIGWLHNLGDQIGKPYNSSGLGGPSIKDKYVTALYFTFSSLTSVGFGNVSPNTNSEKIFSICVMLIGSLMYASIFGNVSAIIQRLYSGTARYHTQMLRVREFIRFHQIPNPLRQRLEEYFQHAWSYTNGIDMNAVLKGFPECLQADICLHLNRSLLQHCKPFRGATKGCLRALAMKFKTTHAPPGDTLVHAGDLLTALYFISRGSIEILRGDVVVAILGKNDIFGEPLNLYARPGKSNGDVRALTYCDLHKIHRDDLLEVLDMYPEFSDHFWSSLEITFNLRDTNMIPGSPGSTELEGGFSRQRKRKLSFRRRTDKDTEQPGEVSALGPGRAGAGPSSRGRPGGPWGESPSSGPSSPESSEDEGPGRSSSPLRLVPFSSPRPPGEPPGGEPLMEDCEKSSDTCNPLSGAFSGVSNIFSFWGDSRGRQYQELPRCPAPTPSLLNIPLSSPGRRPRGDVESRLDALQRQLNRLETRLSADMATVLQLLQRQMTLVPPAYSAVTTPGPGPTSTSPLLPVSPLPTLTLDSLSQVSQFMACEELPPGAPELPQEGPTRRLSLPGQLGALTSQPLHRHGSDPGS

| Structure (SMILES) | hERG current change (%, negative = inhibition) at 1uM |
| --- | --- |
| Cl.OCc1cnc[nH]1 | 16.1% |
| COc1cccc(-c2noc(C3CCCN(C(=O)c4cccc(F)c4)C3)n2)c1 (stereo not drawn) | 8.47% |
| COc1ccc(NC(=S)N2CCC(N(C)CCN3CCOCC3)CC2)cc1Cl | 10.8% |
| CCN1C(=O)CC(Sc2ccccc2N)C1=O (stereo not drawn) | 14.3% |
| CC(C)c1ccc(NS(=O)(=O)c2ccc3c(c2)oc(=O)n3C)cc1 | 19.7% |
| CC(C)CN(CC(C)C)S(=O)(=O)c1cc([N+](=O)[O-])ccc1N1CCCCCC1 | 18.5% |
| COc1ccc(OC)c(S(=O)(=O)NCC(=O)NC2CCCCCC2)c1 | 16% |
| Cc1nc2ccccc2nc1CN1CCC(CO)(CC2CCCCO2)CC1 (stereo not drawn) | 6.85% |
| CCCNC(=O)c1c(N)n(Cc2ccc3c(c2)OCO3)c2nc3ccccc3nc12 | 3.61% |
| CCOc1cccc(OCCOc2ccccc2[N+](=O)[O-])c1 | 6.73% |
| COc1ccc(C(CCNCc2ccc(N(C)C)cc2)c2ccccc2OC)cc1 (stereo not drawn) | -18.4% |
| O=C(NNC(=O)c1cc(-c2ccc(Cl)cc2Cl)nc2ccccc12)Nc1ccccc1 | 2.96% |
| CC(NC(=O)CCNC(=O)N1CCn2c1nc1ccccc12)c1ccccc1 (stereo not drawn) | 14.7% |
| CC(NS(=O)(=O)c1ccc(Cl)cc1)C(=O)NCCC1=CCCCC1 (stereo not drawn) | 9.57% |
| CC1Cc2ccccc2N1Cc1nc2scc(-c3cccs3)c2c(=O)[nH]1 (stereo not drawn) | 21.5% |
| CS(=O)(=O)N1CCC(C(=O)Nc2ccc(Br)cc2F)CC1 | 9.24% |
| O=C(CSc1ncc(-c2ccccc2)nn1)NCc1ccco1 | 0.329% |
| CC(C)c1nnc(NC(=O)Cc2ccccc2[N+](=O)[O-])s1 | 13.8% |
| COc1ccc(NC(=O)N2CCCC2C(=O)NCc2ccc(F)cc2)cc1 (stereo not drawn) | 3.81% |
| O=C(Cc1ccccc1)Nc1ccc(Cl)cn1 | 13.3% |
| CCOc1ccccc1C(c1c(C)n(C)n(-c2ccccc2)c1=O)c1c(C)n(C)n(-c2ccccc2)c1=O | 11.3% |
| CCOc1cc(/C=N/NC(=O)CN2CCCCC2)ccc1OCc1ccc(Cl)cc1 | 17% |

| Structure (SMILES) | hERG current change (%, negative = inhibition) at 1uM |
| --- | --- |
| CS(=O)(=O)N(CC(=O)NC1CCCC1)c1ccc(Oc2ccccc2)cc1 | 7.32% |
| O=C(Nc1ccc(-c2nnc(-c3ccccc3)o2)cc1)c1ccc(Br)o1 | -8.53% |
| CC1=CC(C)(C)N(S(=O)(=O)c2ccc(C)cc2)c2ccc(C)cc21 | 0.168% |
| CCO[C@@H]1OC(C(=O)N2CCN(Cc3ccc4c(c3)OCO4)CC2)=C[C@H](c2ccc3c(c2)OCO3)[C@H]1CCCO | 2.02% |
| CC1CCCN(S(=O)(=O)c2cc3c4c(c2)C(C)C(=O)N4CCC3)C1 (stereo not drawn) | 12% |
| Cc1ccc(NS(=O)(=O)c2ccc(CCC(=O)NCCO)cc2)cc1 | 1.63% |
| O=c1cc(O)c2sc3nc(-c4cccnc4)cc(C(F)(F)F)c3c2[nH]1 | 10.6% |
| CC1CCC(N2CCN(c3ccc([N+](=O)[O-])cc3)CC2)CC1 (stereo not drawn) | -67.8% |
| CC(=O)Nc1ccc2nc(NC(=O)COc3ccccc3C)sc2c1 | 7.46% |
| Cl.O=S(=O)(NCCN1CCOCC1)c1ccc(Cl)s1 | 5.93% |
| O=C(CCN1CCOCC1)c1ccc(N2CCCCC2)cc1.[Br-] | 10.1% |
| CN1CCc2c(OCc3ccc(F)cc3)cccc2C1=O | 5.61% |
| CC(C)(C)c1ccc(NC(=O)N2CCN(c3ccc([N+](=O)[O-])cn3)CC2)cc1 | 10.7% |
| Cc1ccc(CN(Cc2cccnc2)C(=S)Nc2cccc(Cl)c2C)cc1 | 7.22% |
| CC1CC(C)CN(C(=O)CCC(=O)Nc2nnc(C(C)C)s2)C1 (stereo not drawn) | 12.4% |
| Cc1nnsc1NC(=O)OCc1ccc(C(F)(F)F)cc1 | 1.79% |
| COc1cccc(OCc2nnc(SCC(=O)NCc3ccco3)n2CCc2ccccc2)c1 | -6.59% |
| O=C(NCCOc1ccccc1)C1CCC(=O)N(CCN2CCOCC2)C1 (stereo not drawn) | 15.7% |
| O=C(C[n+]1ccc(/C=C/c2ccccc2)cc1)c1ccc2c(c1)OCCO2.[Br-] | 2.08% |
| Cc1c(C(=O)N2CCN(c3ncccn3)CC2)sc2nc3n(c(=O)c12)CCCC3 | 17.6% |
| Cn1c(=O)[nH]c(=O)c2c1nc(CN1CCN(c3ccc(F)cc3)CC1)n2CCN1CCOCC1 | -0.139% |
| CCN(CC)C(=O)c1sc(NC(=O)Cc2ccccc2)c(C#N)c1C | 2.35% |

| Structure (SMILES) | hERG current change (%, negative = inhibition) at 1uM |
| --- | --- |
| O=C(Cn1nnc(-c2ccccc2)n1)Nc1cccc(S(=O)(=O)N2CCCC2)c1 | 15.3% |
| NC(=O)CSc1nc2c(sc(=S)n2-c2ccccc2)c(=O)[nH]1 | 14.7% |
| COc1ccc(C)cc1NC(=O)CCCN1C(=O)CN(C)C1=O | -0.631% |
| CC1(C)CC(=O)C2=C(C1)OC(N)=C(C#N)C21C(=O)N(CN2CCOCC2)c2ccccc21 (stereo not drawn) | 11.2% |
| CCn1c(SCC(=O)NNC(=O)c2ccc(OC)cc2)nnc1-c1cccnc1 | 8.01% |
| Oc1ccccc1-c1nc(N2CCCC2)c2ccccc2n1 | 2.36% |
| CCOC(=O)c1ccc(S(=O)(=O)N2CCN(S(=O)(=O)CC)CC2)cc1 | 12.9% |
| Clc1cccc(Cl)c1Cn1nnc(N2CCCC2)n1 | 11.9% |
| CSc1ncc(CN2CCN(C3CCCCC3)C(CCO)C2)cn1 (stereo not drawn) | 10.3% |
| COc1cc(NC(=O)CN2CCC(Cc3ccccc3)CC2)c(C)cc1[N+](=O)[O-] | 12.9% |
| Nc1nc(CSc2n[nH]c(-c3ccccc3)n2)nc(Nc2ccccc2)n1 | 2.91% |
| Cc1ccc(NC(=O)c2ccc3c(c2)CCN3S(C)(=O)=O)c(C)c1 | 0.297% |
| COc1ccc(C2C(=O)N(C3CCCCC3)CC(=O)N2C2CCCC2)cc1 (stereo not drawn) | 9.07% |
| Cc1c(NC(=O)C(C)OC(=O)c2cc(-c3cccc4ccccc34)nc3ccccc23)c(=O)n(-c2ccccc2)n1C (stereo not drawn) | 2.63% |
| Cc1cc(NC(=O)CSc2ccc3nnc(-c4cccs4)n3n2)no1 | -0.551% |
| O=C1CC(NN2CCCCC2)C(=O)N1c1ccccc1 (stereo not drawn) | 9.34% |
| COc1cccc(-n2c(-c3ccccc3)c[nH]c2=S)c1 | 13.1% |
| O=C(CSCc1nc2ccccc2[nH]1)N1CCN(c2cccc(Cl)c2)CC1 | 1.28% |
| Cc1nc2nc(C)c(NS(=O)(=O)c3ccc(Cl)s3)c(=O)n2[nH]1 | 9.5% |
| O=C1CC(=O)N(c2cccc(Cl)c2)C(=O)N1 | 12.8% |
| CC(C)C(=O)Nc1nnc(CCN2CCCCC2)s1 | 3.78% |
| COc1cccc(-n2cc(CN(C)Cc3nc(Cc4ccccc4)no3)cn2)c1 | -14.2% |

| Structure (SMILES) | hERG current change (%, negative = inhibition) at 1uM |
| --- | --- |
| COc1ccc(-c2cc(=O)oc3c(C)c(OCC(=O)NCCCn4ccnc4)ccc23)cc1 | -8.49% |
| C[C@H](NC(=O)OCc1ccccc1)C(=O)NNC(=O)[C@H](Cc1ccccc1)NC(=O)OC(C)(C)C | 17.1% |
| CCN(CC)C(=O)N1CCC(NC(=O)c2ccccc2)CC1 | 7.42% |
| COc1ccc(-n2nc(C(=O)NCC(=O)NCCCN3CCOCC3)c3ccccc3c2=O)c(OC)c1 | 19.7% |
| Cc1ccc2[nH]c3c(=O)n(CC(=O)N4CC(C)CC(C)C4)ncc3c2c1 (stereo not drawn) | 9.13% |
| Cc1ccc(C(=O)N/C(=C\c2ccc(F)cc2)C(=O)NCCCn2ccnc2)cc1 | -85.1% |
| NC(=O)c1ccsc1NC(=O)COC(=O)c1ccccn1 | 3.79% |
| CC1CCN(CCCNC(=O)CCNC(=O)Cn2cnc3ccccc3c2=O)CC1 | 16.6% |
| O=C(CC1C(=O)NCCN1Cc1c(F)cccc1Cl)NCCC1=CCCCC1 (stereo not drawn) | 1.36% |
| COc1cc(-c2c(-c3cccc(C)c3)oc3ccccc23)cc(OC)c1OC | 17% |
| COc1ccc(N2C(=O)C(Cl)=C(Nc3ccccc3OC)C2=O)cc1 | 2.56% |
| Cc1ccc(NC(=O)c2ccc(F)c(S(=O)(=O)N3CCOCC3)c2)cc1F | -1.44% |
| Cc1cccc(COCC(Cc2ccccc2)N2CCN(C(=O)c3ccc(Cl)c(Cl)c3)CCC2=O)c1 (stereo not drawn) | -4.09% |
| CC(=O)c1c(C(C)=O)c(C)n(-c2nc(-c3ccccc3)c(C)s2)c1C | 5.27% |
| O=C(CSc1ccc2nnc(-c3ccccn3)n2n1)N1CCOCC1 | 6.32% |
| COC(=O)c1c(-c2ccccc2)c[nH]c1C | 12.3% |
| CCn1c(C)nc2cc(C(=O)OCCC(F)(F)F)ccc21 | -3.16% |
| CCC(C)NC(=O)CSC1=Nc2ccccc2C2=NC(CC(=O)NCc3ccc(F)cc3)C(=O)N12 (stereo not drawn) | -2.33% |
| O=C1NC2(CCCCC2)C(=O)N1Cc1cccc(C(F)(F)F)c1 | 4.55% |
| COc1cc(C(=O)Nc2cccc(-c3nncn3C)c2)cc(OC)c1OC | -5.98% |
| COc1ccc2occ(C(=O)c3ccccc3)c2c1 | -1.31% |
